# Reference: PubChem BioAssay AID686979 (National Center for Advancing Translational Sciences (NCATS), 2013)
# Out of some 420,000 compounds screened, about 50,000 (12%) were called active. This list was built around the results that the source calls inconclusive (neither active nor inactive); the mix of calls is not that of the screen. Calls follow the shape of the dose curve; as a rule, active = well fitted inhibition curve with a large enough effect; inconclusive = small, poorly fitted or top-dose-only effect; inactive = flat fitted curve, though single readings scatter. No potency is given beside an inconclusive call; the fits are too rough.
# Assay: qHTS for Inhibitors of human tyrosyl-DNA phosphodiesterase 1 (TDP1): qHTS in cells in presence of CPT; also: nearly all actives have a fitted effect of over 55% in size
# Settings: chicken DT40 Tdp1-/-;hTDP1 cells + 20 nM CPT, ATP luminescence, 48 h; activity change, negative = growth inhibition: at 46.2 µM (top of the series) unless noted
# Procedure, shortened: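 Chicken DT40 Tdp1-/- cells stably complemented with human TDP1 were seeded at 400 cells/well in medium containing 20 nM camptothecin, exposed to pin-transferred compounds, and grown at 37 °C for at least 48 hr. Viability was read as ATP luminescence.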
# % is scaled to controls: 0 for no effect and ±100 for the full control effect; potency is read from the fitted curve at half-maximal effect; tags tell the direction and shape of the fitted curve.
SMILES,Potency,"activity change, negative = growth inhibition"
COCCn1nnnc1CN(CCc1ccccc1)Cc1cc2cc(OC)ccc2[nH]c1=O,"inconclusive [inhibitor, single point]",–
CCOc1ccccc1C(=O)Nc1ccc2nc3c(c(Nc4ccc(OC)c(OC)c4)c2c1)CCCC3,active: 4.11 µM,–
Cc1cc(C)c(CN2CCN(C(=O)CC[C@H]3O[C@@H](n4cnc5c(NC(=O)c6ccccc6)ncnc54)[C@H](O)[C@@H]3O)CC2)c(C)c1,"inconclusive [inhibitor, single point]",–
Cc1cc(C)nc(N2CCCC(C(=O)Nc3ccc(F)cc3)C2)n1 (configuration not stated),"inconclusive [inhibitor, partial curve, poor fit]",–
C(=C\c1cnc2ccccc2n1)/c1ccc2c(c1)OCO2,"inconclusive [inhibitor, single point]",–
CCOC(=O)N1CCN(C(=O)C[C@@H]2C[C@@]3(C(=O)OCC)CCCC=C3N(Cc3ccccc3)C2=O)CC1,"inconclusive [inhibitor, partial curve, poor fit]",–
CC(=O)OCC(=O)C1(O)CCC2C3CCC4C(OC(C)=O)C(=O)CCC4(C)C3C(=O)CC21C (configuration not stated),inactive,–
CCOC(=O)c1ccc(NC(=O)CN2Cc3ccccc3C2=O)cc1,inactive,–
CCN(CC)C(=O)c1cccc(-c2csc(C(NC(C)=O)c3cccc(OC)c3)n2)c1 (configuration not stated),"inconclusive [inhibitor, single point]",–
Cc1ccc(C)c(NC(=O)c2cc(-c3ccccc3)nn2-c2ccccc2)c1,"inconclusive [inhibitor, single point]",–
Cc1ccc(C)n1-c1ccc(C(=O)Nc2ccccc2)cc1,"inconclusive [inhibitor, single point]",–
COc1cc(C(=O)NC(=S)Nc2ccc(Cc3ccncc3)cc2)cc(OC)c1OC,"inconclusive [inhibitor, single point]",–
O=C(C1CC1)N(Cc1nc2ccccc2c(=O)[nH]1)Cc1cccs1,"inconclusive [inhibitor, single point]",–
COc1ccc(-c2noc(-c3nnn(-c4ccc(C(C)C)cc4)c3C)n2)cc1OC,"inconclusive [inhibitor, single point]",–
COc1ccc(CCNC(=S)Nc2ccc(S(=O)(=O)Nc3ncccn3)cc2)cc1OC,inactive,–
CCCS(=O)(=O)N1CCC(N2CCN(Cc3ccc(F)cc3)C(=O)C2=O)CC1,inactive,–
N#CC1=C(c2ccc(-c3ccccc3)cc2)COC1=O,inactive,–
CCOC(=O)C1C(=O)C=C(c2cccc(NS(C)(=O)=O)c2)CC1c1ccco1 (configuration not stated),–,inconclusive: -33.5% [inhibitor]
Cc1cc(Nc2cccc(Cl)c2)nc2ccc(NC(=O)c3cccc(N(C)C)c3)cc12,active: 13 µM,–
CN(C)C(=O)c1ccc(-c2ccc3ncnc(Nc4ccc(F)cc4)c3c2)cc1,"inconclusive [inhibitor, partial curve, poor fit]",–
CCc1cc(=O)oc2c3c(cc(OCC(=O)Nc4cccnc4)c12)OC(C)(C)CC3,"inconclusive [inhibitor, single point]",–

SMILES,Potency,"activity change, negative = growth inhibition"
O=C(c1cnccn1)N1CCC2(CCCN(C(c3ccccc3)c3ccccc3)C2)CC1,"inconclusive [inhibitor, single point]",–
CCOc1ccccc1C1C(C(=O)Nc2ccccc2)=C(C)Nc2c(C(=O)Nc3ccc(F)cc3)cnn21 (configuration not stated),"inconclusive [inhibitor, single point]",–
O=C(COC(=O)C12CC3CC(CC(O)(C3)C1)C2)N1CCN(S(=O)(=O)c2ccc(Cl)cc2)CC1,"inconclusive [inhibitor, single point]",–
CN(CCc1ccccc1)C(=O)c1ccc(NC(=O)Cc2ccc(NC(=O)C3CCCN(S(=O)(=O)c4cccc([N+](=O)[O-])c4)C3)cc2)cc1 (configuration not stated),inactive,–
CCOc1ccc(CCNC(=O)COC(=O)c2cccs2)cc1OCC,inactive,–
FC(F)(F)c1nc(-c2cccnc2)ncc1-c1nnnn1-c1ccccc1,"inconclusive [inhibitor, partial curve]",–
CN(C)CC1CCCCC1C1(O)c2ccccc2CSc2sccc21 (configuration not stated),"inconclusive [inhibitor, partial curve, poor fit]",–
C/C(=N\Nc1cccc([N+](=O)[O-])c1)c1cc(F)ccc1O,"inconclusive [inhibitor, single point]",–
CCCc1cc2c(cc1NC(=O)c1ccc(C(C)(C)C)cc1)OCO2,"inconclusive [inhibitor, single point]",–
COc1cc(C2C(C#N)=C(N)Oc3cc(C)oc(=O)c32)cc2c1OCO2 (configuration not stated),inactive,–
CCOc1ccc(/C=N/Nc2cc(=O)n(C)c(=O)n2C)cc1,inactive,–
Cc1ccc(CNC(=O)c2ccc(N3CCC4(CC3)CC(c3ccccc3)=NO4)c(NC(=O)c3ccccc3)c2)cc1,inactive,–
COC(=O)C1C(c2ccc(OC)cc2)C(C(=O)OC)S(=O)(=O)C(CCN2CCCCC2)S1(=O)=O (configuration not stated),inactive,–
CN1CCN(c2ncc3nc(CCc4ccccc4)c(=O)n(CCC#N)c3n2)CC1,"inconclusive [inhibitor, single point]",–
C=CCC[C@H](Cc1ccc(F)cc1)C(=O)OC[C@@H](Cc1c[nH]c2ccccc12)NC(=O)[C@H](CC=C)CC(=O)N(CCO)Cc1ccccc1,active: 18.4 µM,–
COc1ccc(OC)c(NC(=O)COc2coc(CN3CCCc4ccccc43)cc2=O)c1,"inconclusive [inhibitor, single point]",–
COc1cc(OC)c([N+](=O)[O-])cc1/C=N/NC(=O)c1ccncc1,"inconclusive [inhibitor, single point]",–
Cc1ccccc1Cn1c2ccccc2c2cnn(CC(=O)N3CCC(C)CC3)c(=O)c21,active: 20.6 µM,–
COc1cc(C(=O)O)c([N+](=O)[O-])c(OC)c1OC,inactive,–
O=S(=O)(c1ccc2nc(Nc3cccc(F)c3)ccc2c1)N1CCCC1,active: 23.1 µM,–
Cc1nc(SCc2ccc(O)c([N+](=O)[O-])c2)c([N+](=O)[O-])[nH]1,active: 20.6 µM,–
